Some of the results follow. Rule as the data show it: active = 3.2 or more and inactive = the rest. The signal is at background level for most entries.
What was measured:
Assay in all cases: enrichment score (SH2-bound / input frequency) (ratio); bacterial display of known human phosphotyrosine sites (pTyr-Var adds point mutants) read by sequencing; higher = stronger binding; tyrosines were phosphorylated by kinases first
Settings in all cases: peptide library: pTyr-Var
SHP2 C-SH2 domain E139D = molecular target: SHP2 C-SH2 domain E139D
[1] = molecular target: SHP2 C-SH2 domain wild-type
SHP2 N-SH2 domain L43F = molecular target: SHP2 N-SH2 domain L43F
SHP2 N-SH2 domain T42A = molecular target: SHP2 N-SH2 domain T42A
SHP2 N-SH2 domain T52S = molecular target: SHP2 N-SH2 domain T52S
[2] = molecular target: SHP2 N-SH2 domain wild-type
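Also: displayed peptides selected on beads carrying the immobilized SH2 domain, with library peptides lacking any tyrosine serving as negative controls.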

| Binder | enrichment score (SHP2 C-SH2 domain E139D) | enrichment score [1] | enrichment score (SHP2 N-SH2 domain L43F) | enrichment score (SHP2 N-SH2 domain T42A) | enrichment score (SHP2 N-SH2 domain T52S) | enrichment score [2] |
| --- | --- | --- | --- | --- | --- | --- |
| IHETTYNSIKK [ACTA1_Y281_M285K] | inactive: 0.57 | inactive: 1.11 | inactive: 0.638 | inactive: 0.676 | inactive: 0.537 | inactive: 0.703 |
| ITKQEYDEAGP [ACTA1_Y364] | inactive: 0.304 | inactive: 0.494 | inactive: 0.358 | inactive: 0.411 | inactive: 0.434 | inactive: 0.328 |
| ILILKYPIEHG [ACTA1_Y71_T68I] | active: 5.35 | active: 3.35 | active: 4.44 | inactive: 2.77 | active: 4.38 | active: 4.67 |
| IVTLKYPIEHG [ACTB_Y69_L65V] | inactive: 1.34 | inactive: 1.09 | inactive: 1.24 | inactive: 1.1 | inactive: 1.34 | inactive: 1.1 |
| HNVAIYEGYAL [ACTC1_Y168_P166A] | inactive: 0.678 | inactive: 0.796 | inactive: 0.729 | inactive: 0.612 | inactive: 0.547 | inactive: 0.954 |
| AIFEGYALPHA [ACTC1_Y171_P166A_YF] | inactive: 1.06 | inactive: 0.803 | inactive: 0.857 | inactive: 1.02 | inactive: 0.682 | inactive: 1.04 |
| GGTTLYPGIAD [ACTC1_Y308_M307L] | inactive: 0.607 | inactive: 0.709 | inactive: 0.731 | inactive: 0.624 | inactive: 0.774 | inactive: 0.72 |
| WHYTFYNELRV [ACTC1_Y93_H90Y] | inactive: 1.16 | inactive: 1.11 | inactive: 1.24 | inactive: 1.09 | inactive: 0.965 | inactive: 1.4 |
| WHFTFYNELRV [ACTC1_Y93_H90Y_YF] | inactive: 0.578 | inactive: 1.19 | inactive: 0.805 | inactive: 0.728 | inactive: 0.638 | inactive: 1.02 |
| WHHTFYNELCV [ACTC1_Y93_R97C] | inactive: 1.49 | inactive: 1.52 | inactive: 1.25 | inactive: 1.28 | inactive: 1.22 | inactive: 1.75 |
| ILTLKYLIEHG [ACTG1_Y69_P70L] | inactive: 2.91 | inactive: 3.05 | inactive: 2.31 | inactive: 2.54 | inactive: 2.54 | inactive: 2.86 |
| GGPTFYIDTNA [ACTL6A_Y69_YF] | inactive: 1.41 | inactive: 1.5 | inactive: 1.2 | inactive: 1.94 | inactive: 1.05 | inactive: 1.27 |
| NKHTTYTMEHI [ACTN1_Y708_N707T] | inactive: 0.655 | inactive: 0.733 | inactive: 0.601 | inactive: 0.621 | inactive: 0.69 | inactive: 0.526 |
| KAIMIYVSSFY [ACTN4_Y260_T259I] | inactive: 0.819 | inactive: 1.07 | inactive: 1.04 | inactive: 0.919 | inactive: 0.904 | inactive: 1.35 |
| VGTKRYMAPKV [ACVRL1_Y375_E379K] | inactive: 0.451 | inactive: 0.602 | inactive: 0.561 | inactive: 0.513 | inactive: 0.588 | inactive: 0.73 |
| VGTKRYMALEV [ACVRL1_Y375_P378L] | inactive: 0.76 | inactive: 0.575 | inactive: 0.575 | inactive: 1.43 | inactive: 0.708 | inactive: 0.796 |
| VGTKRYMASEV [ACVRL1_Y375_P378S] | inactive: 0.551 | inactive: 0.406 | inactive: 0.472 | inactive: 0.383 | inactive: 0.454 | inactive: 0.567 |
| GIVEDYRPPLY [ACVRL1_Y421_F425L] | inactive: 0.868 | inactive: 0.812 | inactive: 0.791 | inactive: 0.675 | inactive: 0.739 | inactive: 0.846 |
| GFVEDYRPPFY [ACVRL1_Y421_I417F] | inactive: 0.997 | inactive: 0.883 | inactive: 1.13 | inactive: 0.762 | inactive: 0.828 | inactive: 0.953 |

| Binder | enrichment score (SHP2 C-SH2 domain E139D) | enrichment score [1] | enrichment score (SHP2 N-SH2 domain L43F) | enrichment score (SHP2 N-SH2 domain T42A) | enrichment score (SHP2 N-SH2 domain T52S) | enrichment score [2] |
| --- | --- | --- | --- | --- | --- | --- |
| NDQANYLLNTD [ADA_Y290_S291L] | inactive: 0.596 | inactive: 0.51 | inactive: 0.743 | inactive: 0.564 | inactive: 0.652 | inactive: 0.749 |
| IKRIAYEFVEM [ADA_Y84] | inactive: 0.721 | inactive: 0.598 | inactive: 0.697 | inactive: 0.777 | inactive: 0.657 | inactive: 0.741 |
| IKRIDYEFVEM [ADA_Y84_A83D] | inactive: 1.06 | inactive: 0.992 | inactive: 0.658 | inactive: 0.791 | inactive: 0.878 | inactive: 0.897 |
| HSLRDYKEALM [ADA2_Y337_H335R] | inactive: 1.1 | inactive: 1.04 | inactive: 1.1 | inactive: 0.795 | inactive: 0.807 | inactive: 1.05 |
| HKANEYYPVVL [ADAMTS18_Y764] | inactive: 0.8 | inactive: 0.856 | inactive: 0.947 | inactive: 0.631 | inactive: 1.08 | inactive: 0.88 |
| KANEFYPVVLI [ADAMTS18_Y765_YF] | inactive: 0.463 | inactive: 0.551 | inactive: 0.6 | inactive: 0.597 | inactive: 0.473 | inactive: 0.629 |
| AMCVRYDGVEV [ADAMTSL2_Y594] | inactive: 0.799 | inactive: 0.87 | inactive: 0.923 | inactive: 0.736 | inactive: 0.943 | inactive: 1.21 |
| EESSHCSTEKE [ADAR_Y587_Y587C] | inactive: 0.364 | inactive: 0.393 | inactive: 0.378 | inactive: 0.475 | inactive: 0.458 | inactive: 0.317 |
| AIQDAYMHITS [ADCY10_Y318] | inactive: 0.982 | inactive: 0.651 | inactive: 0.856 | inactive: 0.678 | inactive: 0.668 | inactive: 0.692 |
| LSSVSYVGCSL [ADGRD1_Y571_I569V] | inactive: 0.684 | inactive: 0.624 | inactive: 0.616 | inactive: 1.37 | inactive: 0.576 | inactive: 0.572 |
| GVTLLYFGRFN [ADGRD1_Y85_YF] | inactive: 1.88 | inactive: 1.81 | inactive: 1.45 | inactive: 1.83 | inactive: 1.97 | inactive: 1.7 |
| SRPHLYGTPSR [ADGRE2_Y670] | inactive: 1.24 | inactive: 0.986 | inactive: 1.12 | inactive: 1.04 | inactive: 1.42 | inactive: 1.32 |
| FRPHLYGTPSR [ADGRE2_Y670_S665F] | inactive: 2.4 | inactive: 1.96 | inactive: 2.66 | inactive: 2 | inactive: 2.42 | inactive: 1.93 |
| AVAFVYYKSIG [ADGRL4_Y301] | inactive: 1.86 | inactive: 1.57 | inactive: 1.63 | inactive: 1.42 | inactive: 1.77 | inactive: 1.3 |
| AVAFLYYKSIG [ADGRL4_Y301_V300L] | inactive: 1.01 | inactive: 1.39 | inactive: 1.15 | inactive: 0.961 | inactive: 1.09 | inactive: 1.3 |
| TEALFYTDDTA [ADPRS_Y75_YF] | inactive: 0.759 | inactive: 0.765 | inactive: 0.702 | inactive: 0.729 | inactive: 0.843 | inactive: 0.951 |
| LPKEQYLCTKE [AFG3L2_Y614_Y616C] | inactive: 0.749 | inactive: 0.951 | inactive: 0.822 | inactive: 0.793 | inactive: 0.661 | inactive: 1.29 |
| GRTPLYMDRQG [AGXT_Y194_G190R] | inactive: 0.789 | inactive: 1.02 | inactive: 0.792 | inactive: 0.702 | inactive: 0.744 | inactive: 0.65 |

Reference: the supplement of paper PMC10369915
